The chains are these.
B1: CPEB3 Ribozyme (parent)
chain: UAACAGGGGGCCACAGCAGAAGCGUUCACGUCGCAGCCCCUGUCAGAUUCUGGUGAAUCUGCGAAUUCUGCUGUAUAUCUC

The source gives no read counts; variants with many changes may rest on few reads.

This data set covers variants of B1. Briefly: self-cleavage, relative activity (ratio to wild type); higher = more cleavage; in vitro, sequencing. A digest of the protocol:
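Libraries of CPEB3 self-cleaving ribozyme mutants came from rounds of error-prone PCR and carried barcodes, which DNA sequencing matched to variants. In vitro transcription used T7 RNA polymerase at 37°C for 5 hours, with a further 15 min in DNase I before EDTA stopped the reaction; the ribozymes cleaved during both steps. The RNA was reverse transcribed with template switching and sequenced on Illumina. Relative activity is the cleaved/total read fraction of a variant divided by that of the unmutated ribozyme, averaged over three batches with at least 5 reads.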
For C11A A18G U48C, the self-cleavage was determined as 0.35.
With G10U U31A C59A U66C U78A, the self-cleavage was 0.06.
With C11A G30A U54C, the self-cleavage was determined as 0.09.
On to G10C U58A U72C, for which the self-cleavage is 0.17.
As to C11G A15G U51C U60C U72A, the self-cleavage came out at 0.09.
Turning to C11A U41A A47G, the self-cleavage came out at 0.29.
To G10U U25C U66C U76A U80C belongs 0.05; to G10C U25G U41G C62U U66C, 0.14.
For the variant C11G A18U A35G C38U U43C A56G, the self-cleavage came out at 0.05.
Take C11G A18G U72G U78C: the self-cleavage was found to be 0.1.
On to G10U A28G U31A, for which the self-cleavage is 0.11.
The same measure for G10C U60C U66C U74A U76A: 0.05.
To G10U U25C G36C A47G U51A U80C belongs 0.12; to G10U U49C U69C U76C, 0.13.
On to C11G A20G U25C U31C U41A, for which the self-cleavage is 0.05.
For C11G A21G A45C U49C C71U, the self-cleavage turned out to be 0.05.
As for C11A A45G U69C, the self-cleavage worked out at 0.31.
To C11G A20G U26C A77U belongs 0.44; to G10U U25C A45C, 0.07; to C11A A20G C59A U72C, 0.08.
The same measure for C11A A21G U25C U54C A77G: 0.04; for C11A A13G U25C U26C C29U G52A U69C: 0.06.
On to C11A A18U U25C A45G U49A A57G U74C, for which the self-cleavage was 0.05.
To C11A A18C U31C U78C belongs 0.2; to C11A A13G U43C U48A U51C U67C, 0.08.
The same measure for C11A A20G U26C G33C U72C U76A: 0.
To C11A U49C U66C U72C belongs 0.06; to C11A A64G U72A, 0.11.
Turning to C11A U31G U60C U72C U76C, the self-cleavage came out at 0.05.
On to C11G A13G G19A, for which the self-cleavage was found to be 0.07.
The same measure for C11G A15G U51C U60C G63A A65G U74A: 0.19.
To G10C U26C A45G U51C U72C belongs 0.19; to G10U U26A C29U U31A C39G, 0.16; to C11A A65G U72A, 0.1.
The same measure for C11A A21G A28G U58A: 0.3; for C11G A13U U31C A57G U60A U78C: 0.09.
For G10U U31A U49C U67A C79A, the self-cleavage stood at 0.1.
To G10C G16A U69C belongs 0.12; to G10U A64U U80C, 0.49.
To C11A A47G A64G U72C belongs 0.2; to G10U A13U A21G G30A U48G C62U, 0.01.
Consider C11A C44A U51A U72G, for which the self-cleavage was determined as 0.25.
The same measure for G10C C62U U78A: 0.13.
For G10C U58C C79U, the self-cleavage is 0.09.
As for C11G A13G A15G U25C G33A U72C, the self-cleavage came to 0.07.
To C11A A21G U78G belongs 0.1; to C11A U72C A75U, 0.6; to C11G A18G C32U, 0.06.
Regarding C11A U31A A35G U54C, the self-cleavage came to 0.32.
To C11G A13G C38A U43C A56U C59U belongs 0.06; to C11A A15U A45G A57G C79U, 0.1.
With C11G A13C A18G G19A A20G A35C U49C, the self-cleavage was found to be 0.11.
The same measure for C11G A13G U80C: 0.56.
To C11G A15G U51A G61A belongs 0.35; to C11A A13U U31C, 0.2; to C11A A20G U31A G36A, 0.05.
To G10U C23G U49C belongs 0.06; to C11A A15U A28U U43C, 0.53; to C11A U26C U31A A56U U60A U72C, 0.05.
For G10C U25C U80C, the self-cleavage worked out at 0.09.
In the case of C11G A18G A64U, the self-cleavage came to 0.11.
For G10U G73A U76C, the self-cleavage stood at 0.36.
To C11G A13U C34G C38U U43C belongs 0.03; to C11A A13G U43G, 0.05; to C11G A15G G33A U49C, 0.32.
To C11A A13G A28U G63A A64U C71U belongs 0.04; to C11G A13U A28C, 0.39.
Take C11G A15G A18U A47G U67C U69C: the self-cleavage stood at 0.06.
To G10U U41C G63U G70A belongs 0.17.
To G10U A35G U51A U69A U72A belongs 0.09; to G10C G16A A35G A57U A65G, 0.09; to C11A A15U A18U C62G U66C U67C, 0.18.
In the case of G10C G19A U26C A35G A45G, the self-cleavage stood at 0.05.
The same measure for C11G A18G C23G C40U U67C U74A: 0.05; for C11G A18G C40U A47U: 0.06; for C11G A15G G19U A28G U51A: 0.04.
In the case of G10U U49A U51A A64G U66C, the self-cleavage came to 0.12.
To G10U A15U U54A belongs 0.21; to G10U A20G A45U, 0.09; to C11A U67A U72C, 0.2.
To C11G A13U U31A U54C A56U belongs 0.11.
To C11A C12U A18U U25C U49C U51C belongs 0.05.
Turning to G10U A18G U54A A77C, the self-cleavage was found to be 0.06.
Consider C11A G19U U54C A64U U69C, for which the self-cleavage is 0.05.
As for C11G A13U U76C U78C, the self-cleavage is 0.49.
For the variant C11G A15G A35U G52A, the self-cleavage came out at 0.38.
As for C11A A13G A64U, the self-cleavage was found to be 0.03.
The same measure for G10U C23U A77G C81A: 0.12; for C11A A35G G61A A64G: 0.06; for G10U U26C G30A U49C U51C U72G: 0.07.
For C11A C37U U51G U72A, the self-cleavage came to 0.12.
For C11A A15G U60A G73A, the self-cleavage worked out at 0.14.
Consider C11G A20U U72A U78C, for which the self-cleavage stood at 0.18.
The same measure for C11A C38U G52A: 0.1; for G10U G30C A45C G70A U80C: 0.04.
To G10C U41C G52A belongs 0.09.
G10C U26C U66C: the self-cleavage worked out at 0.17.
The same measure for G10U A35U C38U U66C: 0.03; for C11G A18G A21G A65U U78C: 0.07.
The same measure for C11A A35G U43A A56U U69A: 0.09; for G10C U25C U43C: 0.25; for G10C U48C U54A: 0.07.
The same measure for G10U A64G U76C: 0.06; for C11G A18G U41A A45U: 0.06.
Consider C11A A18U A64U, for which the self-cleavage worked out at 0.04.
To G10C U31G U49C G70A belongs 0.04; to C11A C37U U41A U49C A57U U60G, 0.05; to C11A A20G C37U U60C A65U, 0.05.
As to C11G A13U U58C U60G, the self-cleavage was determined as 0.1.
C11A A15G A20U U41A A45G: the self-cleavage stood at 0.02.
To C11A A18G C23G U26A U67C belongs 0.05; to G10U U31C U51C, 0.07.
As to C11G A18G G61C, the self-cleavage is 0.06.
For the variant C11G A13G A28G A45U, the self-cleavage is 0.08.
The same measure for C11A A65G U66A: 0.2; for G10U C34A A35G G55U U67A: 0.04.
The same measure for C11G A15G C29U U31C A57G U78C: 0.03; for C11G A15C C29U U48C: 0.04; for C11A A20U A28G A57G U80A: 0.03.
Turning to C11A A15G A20U U25A U41C A45G U69A, the self-cleavage was determined as 0.12.
Regarding C11A A13G U49A U54C A57G, the self-cleavage came to 0.19.
The same measure for C11A U72A A77U: 0.19.
For C11A A28G U31C U51A A56G U69C, the self-cleavage turned out to be 0.09.
Consider C11A G33A C40A A56C A57G, for which the self-cleavage worked out at 0.05.
Regarding C11A A20G U60A, the self-cleavage was 0.32.
Turning to C11A U54A A57G, the self-cleavage turned out to be 0.41.
To C11A A13G G70A belongs 0.1.
The same measure for G10U A18G G24U U41C A75G U80A: 0.04; for C11G A13U U78G: 1.17.
To C11A U26C A35U U41A A47U belongs 0.06; to C11A A56G U66A U72C, 0.07.
As to C11G A18C A77U, the self-cleavage came to 0.09.
With G10C U31C U72C, the self-cleavage came to 0.22.
The same measure for C11A U51C U78G: 0.14; for C11A C12U U51C U72C: 0.16.
The same measure for C11G A15U A45G U48A U72C: 0.27; for C11A A15G U80A: 0.42.
The same measure for G10U A21G A28U A56G U66A U80C: 0.02; for G10U U26C U41C A64G U76A U80C: 0.22.
Turning to C11G A13G A57G U66C U74A, the self-cleavage was determined as 0.27.
To G10C U48A U66A U76A belongs 0.11.
To G10U U25C A28U U69A belongs 0.12; to G10C G19U A20U U72C U78C, 0.04.
On to C11G A15U U26C U67G, for which the self-cleavage was found to be 0.18.
In the case of G10C U26C C32G A35U U49C U54C G63A, the self-cleavage came out at 0.05.
The same measure for C11A A21G A28U A47G U74G: 0.06; for C11G A13G A15G U26C C62U: 0.05.
Regarding C11A U69C C71U, the self-cleavage was found to be 0.07.
The same measure for C11G A15G A21G A75G: 0.05.
To C11G A20G U67G belongs 0.19; to G10U U31A U41A A57U, 0.11; to G10U A13G U54C, 0.06.
In the case of G10C U43A U54C G63A U80A, the self-cleavage was 0.07.
The same measure for G10U C37A C40U: 0.26; for G10U A45G G52U: 0.04.
For G10U A57G U72C, the self-cleavage amounted to 0.2.
On to C11G A15G C29U A45G U51C, for which the self-cleavage turned out to be 0.11.
To C11A G24A U26A A47G belongs 0.06; to C11G A13G U51C G61C U67C, 0.06.
To C11A A56G U58C belongs 0.07; to G10C G36A U69A, 0.05; to C11A G33A U49C U76A, 0.07.
To G10U A15U A45C A64G belongs 0.13.
For G10U C14U U31A U51A, the self-cleavage came out at 0.06.
Turning to C11A U25C G30A A45G, the self-cleavage was 0.22.
To C11A A13U U26C U66A C81U belongs 0.08; to C11G A15U U43G A65U, 0.07.

Values taken from the RNAGym collection of RNA variant scans (doi:10.1093/nar/gkz1192).
